Measured values: the supplement of paper PMC11417369
The other results are listed elsewhere or left out.

tested on: PfHDP1 homeodomain (GST-tagged); assay: gcPBM binding intensity (ln(normalized median fluorescence intensity)); higher = stronger DNA binding
Procedure, shortened: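 The binding buffer was 1× PBS containing 1% milk, 0.2 mg/ml BSA, 0.5% salmon testes DNA and 0.03% Triton X-100. In it, GST-tagged P. falciparum DNA-binding domains expressed in E. coli were applied for 1 h to an Agilent 4 × 180k array of primer-extended double-stranded 36-bp intergenic genomic probes plus negative controls. Binding intensity, read with Alexa488 anti-GST antibody and a 488 nm scan, is the highest Masliner-normalised natural-log median intensity across replicate spots of either probe orientation.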

Sequence | gcPBM binding intensity (ln)
TTAAGAAATAACAATGCACACATTTAGGTCTTTTAT [CACACA_site3285] | 9.44
ATATATATGTTTTATAGTACACACATAAATGGACAT [XGTACX_site4538] | 6.68
CTATTATTTTTAAATTGTACTATAACAAAATGTATA [XGTACX_site3916] | 6.27
AAATAAATCTATAATACACACAAAAATATAAAATGC [CACACA_site7700] | 7.16
TTTATATTTATATAAATATAATATATATGAATTATA [XGTACX_negctrl_site466] | 6.35
AAAGATGATAAAATATGTACACACAGTTTATACATT [XGTACX_site8703] | 6.1
TGAGTCTTTTACATTGCACACACATTTCTTTCCTTT [CACACA_site8978] | 9.92
ATTATCCATCAAAAGGTGCAAATTTTTAATTATAAA [GTGCAC_site9932] | 9.41
TTTTTTGTTATTTTCCGTTTTTTTCCATTATAATTT [GTGCAC_negctrl_site461] | 7.15
TATTCAAAGAAAAACTGTACGTGTAGCCTACATCCT [XGTACX_site7707] | 6.15
ACGTTAAAAACAAGTTGTACACAATAAATTATTCTT [XGTACX_site6321] | 6.76
TATATATATATATGTAGTACTTTACAAAATAATTCG [XGTACX_site5322] | 9.21
GCATAACCTTTATATTGTACATATACCTTTATTGTT [XGTACX_site6046] | 7.15
TTTATATTTATGTAGGTGCATTTGTTTACAACATAT [GTGCAC_site9511] | 9.76
TTATTTATACGCTATGAGTTTGATACAAACAATTAA [XGTACX_negctrl_site456] | 6.82
TTTTTACGGAATTAGAGAAAAGAAATAAAAAAAAAA [XGTACX_negctrl_site436] | 6.28
TAGTTATCACATTGCACACACATTTCCTTTTACATT [CACACA_site7589] | 9.83
AATAAAAAAAAAATATATATTTTTTTTTTTTTTTTT [CACACA_negctrl_site54] | 6.57
ATCTATTCACACTTTTAAAAATTAAATATATTATAT [TGCATGCA_negctrl_site610] | 7.15
TAATTTTTTTTTTATAGTACACATATTAAAGAATTA [XGTACX_site2485] | 6.27
ATATATGTATATATGTACATGAATATATAAAGAAAA [CACACA_negctrl_site315] | 6.94
TATTTATACTAATATGCATGTAATCGAAATACAGCT [TGCATGCA_site457] | 6.33

Sequence | gcPBM binding intensity (ln)
GTTTATATTTAATTTTTTTGTTTTTTTGTGTAATTC [XGTACX_negctrl_site194] | 6.56
ACAAATAAATAAATATGTACTTAATTATATAATTGA [XGTACX_site5626] | 6.16
ATATATATAAACAAAAGTACATATATAAATTCATTT [XGTACX_site3482] | 6.31
TTAAAGTTACATTCGACACACACATAACAACTAAAT [CACACA_site9130] | 6.99
TCTTATATTATATTGTGTATTAAAATTTAACTTCAA [TGCATGCA_negctrl_site565] | 6.58
TTTGTAGCACTTAAGAGTACAAAATGTATAAGATTT [XGTACX_site2321] | 6.53
TTAATATAATTAAAATGTACTTATTTGTAAACATTA [XGTACX_site6313] | 5.98
GACCATGTTAACAAAGCATGCATCTCTATATGTTTA [TGCATGCA_site358] | 6.87
AAGAAAAACAATACGTGTACCAAGCATCCTACTAAC [XGTACX_site6628] | 6.63
AAAAAAAAAAGAAAGAGTACTTTTTCAATACATATA [XGTACX_site2468] | 6.09
TTATTTTATAAATCGAAAACAAACAAAAAAAAGATA [XGTACX_negctrl_site178] | 6.69
TTGCTGTATTTATTTTGTACACATTTGGCATTATAT [XGTACX_site3408] | 7.28
ACATAAAATAAATATACACACATATGTATATATCAT [CACACA_site7424] | 6.52
CAAATACATAGACACACACACATATACATATTTATA [CACACA_site7610] | 6.73
TTTATATTTAAATGCATGCACTTTCTATTTTTTTTT [GTGCAC_site9959] | 7.46
GAATAAAGGAGAGGCACACATATATATATATATATA [CACACA_site2452] | 9.33
TATTTGATAAATTATACACACACAATATATATAAAA [CACACA_site8625] | 6.61
GAGGATCATCAATTCACACACATAAAAATGAAGTTA [CACACA_site3078] | 6
TATATAAAATTCTATTGTACATGTTATACGAAAGAA [XGTACX_site5711] | 6.54
CAACGATACAAAAAAGGTACACATATATATATATAT [XGTACX_site8688] | 9.23
TTCTTTTTAATGTCGGTGCAACTCCATAAAAACAAA [GTGCAC_site9488] | 10.9
